Assay results as given in article PMC12136788.
Substitutions are numbered along the chain they refer to. The list shows a part of the results.

B1: chr22:22143041:22143042:-_ENSG00000100030_ENST00000215832|hu_hu|FALSE|FALSE (ssRNA)
RNA: GGGAGUUCUACAGUCCGACGAUCAAUGUGGUUCAGCUGGUCAAGAUAAUGCUUCCCUGGAAAGAUGGGCCUGUUAGAAAGCAUUUCUGCCAGAAUGCAGCCUACAGACCAAAUAUCAAUGGACUUGGUGUAGCCCUUGGAAUUCAACAGAGGAUUGAGCAUCA
B2: chr3:179287964:179287965:+_ENSG00000136518_ENST00000429709|hu_hu|hu_hu_hu_mus_True|48_78 (ssRNA)
RNA: GGGAGUUCUACAGUCCGACGAUCCUUGAGUGGUGAGAUGGCCUCCAUGUUCUCCCUCGGAACACGCAGGGCAUUGGUGUCUAUGUAGUAGGUGGGACCGCCCUGCUUGCCUUUGUCACCAUCAAUCUCCAUCAUUGUACUUCCCAACAGAGGAUUGAGCAUCA
B3: chr6:52679276:52679277:+_ENSMUSG00000004535_ENSMUST00000080723|mus_mus|FALSE|FALSE (ssRNA)
RNA: GGGAGUUCUACAGUCCGACGAUCGUAACAGAACUGAUAAAAUUCUCCAUCAUCAUUUGGAAGGUAAUAUCCUUGAAAUGCUAGUACACAAUUGACUGUUGAUCCUUCCACAUAAUGUUCAGGCAUAGGAGACCAUAAAAAUGUCAACAGAGGAUUGAGCAUCA
B4: 52698872_52703203_226_CDS_ENSG00000157077_ENST00000287727|human|control|control (ssRNA)
RNA: GGGAGUUCUACAGUCCGACGAUCCUUAUUCCACUUUGUAUCCAAUAAAGUAGAAGAAACUGUUUCAUCUUCGUUUUGUUCAAAUUCAUCUAACACCUUGUCCAGGUUGUAAGCUUCUGCUUGGAAGUAAUUCUCCAUCGGUGACAACAGAGGAUUGAGCAUCA
B5: chr19:26705166:26705167:+_ENSMUSG00000024921_ENSMUST00000025862|mus_hu|FALSE|FALSE (ssRNA)
RNA: GGGAGUUCUACAGUCCGACGAUCUCCAGACAUAGGGCUGGAGACGUGCUCUGGGGCUCCUAAUGGAGAUGGGUGUGGUGACAUAUAACCUUGGCUGUGUUGAUCCAUUGGACUCUGGGGAGGGCCCAUGCCUGGGUGAGGUGGCAACAGAGGAUUGAGCAUCA
B6: chrX:101157612:101157613:-_ENSMUSG00000056537_ENSMUST00000070705|mus_hu|motif|central (ssRNA)
RNA: GGGAGUUCUACAGUCCGACGAUCUAUCAGUAACAGUGAUGCUACCAAUUUAACUGGUACGGAAAUCAGAUUUUUAGGUCCGGUAACGUGGCUUUUAAAAUAUUUCCUUUUAUUCUGGAACAAAAACUGGAGAAAGGACAAUGACAACAGAGGAUUGAGCAUCA
B7: chrX:71549762:71549763:+_ENSMUSG00000019087_ENSMUST00000019231|mus_mus|mus_mus_mus_hu_False|38_108 (ssRNA)
RNA: GGGAGUUCUACAGUCCGACGAUCAAAGUGUACCACUUCUUAUUGUUAGCACAACAUCACCAGAAAACGAUAACGACAGCCAAGCAGGACAGACAGUCAAGUAGUCUUUCCACACUCCCAAACUCAGGGAGCCCUAUAACCUUACAACAGAGGAUUGAGCAUCA
B8: chr2:32339754:32339755:+_ENSG00000021574_ENST00000315285|hu_hu|FALSE|FALSE (ssRNA)
RNA: GGGAGUUCUACAGUCCGACGAUCGCCUGAAAGGCCUGCAGAUCCAGUUUUCAUAACUGUUUUUGAACGAGGCAGUGAAUUACUAGUGUGUGUUAAGGGGUCUUUUCUUUUUGGAACAGCUCCACUUUCUGACUGGAGAUGUCCCAACAGAGGAUUGAGCAUCA
B9: 133316617_133326729_392_3pUTR_ENSG00000213585_ENST00000395044|human|control|control (ssRNA)
RNA: GGGAGUUCUACAGUCCGACGAUCUACCCUGUCUUGAUUUUAGCAUUUUUUUUCCCAGUGUUAGGUGAGAAGGAUGAAUCGAAGGUCAGCUUCAGUCCACGUGCAAGCUGAUCUUCCACAGUAAUCUCGGUGCCUAGUGUAUUGCAACAGAGGAUUGAGCAUCA
B10: 31863354_31864446_800_CDS_ENSG00000129493_ENST00000543095|human|control|control (ssRNA)
RNA: GGGAGUUCUACAGUCCGACGAUCCUUAAAACACAGUGUGGCCACACUGUCCAGGUCCGUACUCCACAUAAAGAUGGCUUCAUUCUGAAGUUCAAGGAGACACUUUGCAGCAGCACAACGAACAGCCAUGGAUCUAUCUGUCAACAACAGAGGAUUGAGCAUCA
B11: chr9:113828744:113828745:+_ENSMUSG00000033392_ENSMUST00000111838|mus_hu|motif|central (ssRNA)
RNA: GGGAGUUCUACAGUCCGACGAUCAAGUAAUGUUAUGUACAGUUUUAUUGCCAGUAUAUGCACAACAGUAAGCAUAGAACGGUAAAUACACAAUGUAAUUAACAGUAGAAAACAAAAUUGUUACAGGUAGAGGGAGAGGAUAUACAACAGAGGAUUGAGCAUCA
B12: chr16:94664741:94664742:+_ENSMUSG00000040785_ENSMUST00000117648|mus_hu|mus_mus_mus_hu_False|1_58 (ssRNA)
RNA: GGGAGUUCUACAGUCCGACGAUCUGGUACUGAUCUUGGUAGCUGAUAUUCAGGAGAAAGGCUGGCCAAGGGUGUAUAAAUGCUAGUGUACUGGGGCAAACCUGGUAACACGUUUAUGUAUGCUGGCGGUGUCUGGGUGCCAAACAACAGAGGAUUGAGCAUCA
B13: chr1:244855233:244855234:+_ENSG00000121644_ENST00000302550|hu_mus|hu_hu_hu_mus_True|58_108 (ssRNA)
RNA: GGGAGUUCUACAGUCCGACGAUCCAUUAAAUGAUAAGCGUUGCCCUUAUACUCUUUCCCCAGUUCUUCUACAAUUUUUUCUAUAUCAUCUUCUAGAAAGUCCGUACUUCCUAGAACAACAGCUUCUUUAAAUUUAAAUGUUUCCAACAGAGGAUUGAGCAUCA
B14: chr10:5944071:5944072:+_ENSMUSG00000019763_ENSMUST00000042251|mus_mus|motif|central (ssRNA)
RNA: GGGAGUUCUACAGUCCGACGAUCUCCCCAGCAUCUCUGCAGAGAGCUGGAAAGAAAGGCCACACACUCGCCUUGGCAGUACGGGCAAGCACAGCAUCAGCAAGAUGUCACUGAAUGUGUAUUCUCUGGUGUAGUCGGCCAAGGCAACAGAGGAUUGAGCAUCA
B15: chr12:85018817:85018818:+_ENSMUSG00000010608_ENSMUST00000048155|mus_hu|FALSE|FALSE (ssRNA)
RNA: GGGAGUUCUACAGUCCGACGAUCUUCUGCUUCUUCAUCAAGUACCAUGGCAACAUCAUCUAAAAUGCUCUGGGGUGAACUAUGAGCCAUAACCUUAGAACAAACAAAAUCAACUAAUGUAGCUUCUUCUUCACCUAUAUAUUCCAACAGAGGAUUGAGCAUCA
B16: chr14:52433459:52433460:+_ENSG00000186469_ENST00000556752|hu_hu|motif|central (ssRNA)
RNA: GGGAGUUCUACAGUCCGACGAUCAAUGGUUCUCCUCGCUCUCUUCAAAUGCCGUGGACUAGAAAGGUGCCCACUUCACGGAAAACUCUACAUCAAUGUCCCAGGAGCCCGGAGGCUCUUCAGGCCCCUCUCAAAGACUUAAAGCAACAGAGGAUUGAGCAUCA
B17: chr7:66561770:66561771:+_ENSMUSG00000025326_ENSMUST00000107537|mus_hu|FALSE|FALSE (ssRNA)
RNA: GGGAGUUCUACAGUCCGACGAUCGGUACAUAACAAACAGUUCUGUCUCAAUUAUGAAAAAAAUUAAUUAAAAUAAUCCUGAAAGACAUCCUUUUUCUCCCCCCAAUGAUUUGAAAGCUGCAUUUUUCCUGCCAAUUUCAAACACAACAGAGGAUUGAGCAUCA
B18: chr2:43450610:43450611:-_ENSG00000152518_ENST00000282388|hu_mus|motif|central (ssRNA)
RNA: GGGAGUUCUACAGUCCGACGAUCGUUAAAUAGUUUUUCAUAUUGAGUUGUGGUGCAGUGGUGCGGAUCAACUCAGAACAACGGAAAAUGAAGCACUUAUUUCCCAACAACUAUGAACUGAGCUCUGCCCAUAGCUUCCAGAGACAACAGAGGAUUGAGCAUCA
B19: chr3:179287964:179287965:+_ENSG00000136518_ENST00000429709|hu_hu|hu_hu_hu_mus_True|8_28 (ssRNA)
RNA: B2 RNA with C57G, A60C, A63G, C66G, A96C, G114A, C132U, U134A
B20: chr6:52962840:52962841:+_ENSG00000112146_ENST00000323557|hu_hu|FALSE|FALSE (ssRNA)
RNA: GGGAGUUCUACAGUCCGACGAUCAUAAAUAUGCUUAAGCAACUUAAUUCCAACUUAAUUUCAAAACACCCCAGGAAUCAACUAUCCCUUUAAAUAAAAAAAAUAAUCAAUUUAUAUUCUUCUUAAAAGAACUCCAACAAUUUACAACAGAGGAUUGAGCAUCA
B21: 61655584_61693606_2132_CDS_ENSG00000171316_ENST00000423902|human|control|control (ssRNA)
RNA: GGGAGUUCUACAGUCCGACGAUCAGUCAUAUCCGGCACUGGUUUCUCUAGAAAGGGCUCCGACGGGGAAUGCUGAUGCACAGGCACUUUCUGCGGGGUGUUCUGGGGUGAUGGGUGGAGCUGUGCCCAAGGCUGGUGAUGAGGCAACAGAGGAUUGAGCAUCA
B22: chr5:37680062:37680063:+_ENSMUSG00000029121_ENSMUST00000031004|mus_hu|mus_mus_mus_hu_False|28_48 (ssRNA)
RNA: GGGAGUUCUACAGUCCGACGAUCUUUGGGUGUAGCUGGUACCUCGUACACAGGACCGUCAUACAUGCCCCUGGAAACCCCUUGCAACCCGAAAACCUUAUUCCUGAUCCUGACACGCUGGUACAGGUGCUCCGGGAACGCCUUCAACAGAGGAUUGAGCAUCA

What follows are binders tested against T1, UNK ZnF1-3 (human, UniProt Q9C0B0 31-174) (assay: nsRBNS (natural sequence RNA bind-n-seq); RBNS binding buffer (assumed for nsRBNS): 25 mM Tris pH 7.5, 150 mM KCl, 3 mM MgCl2, 0.01% Triton X-100, 500 ug/ml BSA, 20 U/ml SUPERase-In, 4 C; UNK is unkempt and MSI1 is Musashi-1; names of the RNAs are library labels; protein concentration not given here; high values mean tight binding).
T1 sequence: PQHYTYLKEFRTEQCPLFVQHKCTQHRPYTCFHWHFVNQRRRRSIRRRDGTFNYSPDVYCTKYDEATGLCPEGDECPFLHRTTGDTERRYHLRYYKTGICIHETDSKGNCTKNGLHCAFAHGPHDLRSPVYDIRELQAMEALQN

Row | Binder | binding signal [enrichment R]
1 | B1 | 0.949
2 | B2 | 0.473
3 | B3 | 0.75
4 | B4 | 0.763
5 | B5 | 1.31
6 | B6 | 1.08
7 | B7 | 1.02
8 | B8 | 0.761
9 | B9 | 0.707
10 | B10 | 1.16
11 | B11 | 1.3
12 | B12 | 1.09
13 | B13 | 1.44
14 | B14 | 0.907
15 | B15 | 1.39
16 | B16 | 1.22
17 | B17 | 2.1
18 | B18 | 1.33
19 | B19 | 0.797
20 | B20 | 0.613
21 | B21 | 2.38
22 | B22 | 0.789
